Assay results: PubChem BioAssay (NCI)
Values joined by “and” are separate entries in the source; they are usually repeats but may differ in a detail not shown here. Identical values can stand only once.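 How tested: cells in 96-well plates exposed to compound for 48 hours at five concentrations. Abbreviation: GI50, concentration required for 50% inhibition of growth. The concentration for full growth arrest is given as TGI.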

System: NCI-H322M lung
Assay: NCI tumour cell line growth inhibition, 48 h

SMILES	TGI	GI50
COc1ccc(OC/C(N=Cc2cccnc2)=N/NC(=O)c2ccncc2)cc1	> 100 µM	–
O=C(O)COc1cccc2ccccc(=O)c12	> 100 µM	–
O=C(CCCN1CCC(Nc2ccc(F)cc2)(c2nnnn2C2CCCCC2)CC1)c1ccc(F)cc1	19.1 µM	–
COc1ccc(-c2cc(-c3ccncc3)nc(N)c2-c2ccc(F)cc2)cc1	> 100 µM	–
O=C1COCCN1c1ccc(NCc2cn(Cc3ccc(F)cc3)c3ccccc23)cc1	> 100 µM	8.42 µM
COC(=O)C(Cc1cc(OC)c(OC)c(OC)c1)(NC(=O)c1ccccc1)P(=O)(OC)OC (stereo unspecified)	> 100 µM	–
C[C@@H](Br)[C@@H]1CC[C@H]2c3[nH]c4ccccc4c3CCN2C1	> 100 µM	–
COc1ccc(/C=C/c2cnnc3ccccc23)cc1OC	> 10 µM	–
COC(=O)CC(c1ccccc1)C(C#N)(OP1(=O)OC(c2ccccc2)C(C)N1C)c1ccccc1 (stereo unspecified)	> 100 µM	–
CCCCCCCCC[C@@H]1C[C@H](O)[C@H](Cc2ccccc2)N1C(=O)OC(C)(C)C	32.7 µM	–
CC1(C)OC(=O)C(c2ccsc2)C(=O)O1	> 100 µM	–
COc1ccc2c(c1)cn1c3ccc(OC)cc3[nH]c(=O)c21	2.39 µM	0.513 µM
Cc1ccc(Sc2cc([N+](=O)[O-])cc(Sc3ccc(C)cc3)c2Sc2ccc(C)cc2)cc1	> 100 µM	–
[B]C(=O)NC(CC(C)C)C(=O)NC1c2ccsc2C(=O)C1O (stereo unspecified) (tested in a mixture with another compound)	> 100 µM	–
O=C(O)c1cc2sc(C(=O)O)cc2s1	> 100 µM	–
O=CN/C=C\c1cc(O)ccc1O	> 100 µM	–
O=Cc1ccc(Oc2c3ccccc3nc3ccccc23)cc1	26.8 µM	–
C/C(=N\O)c1ccc(Nc2cc(-c3ccccc3)nc3c(O)cccc23)cc1	30.5 µM	12.5 µM
CCOC(=O)/C(C#N)=C/c1[nH]c(C)c(C)c1C	> 100 µM	–
CSc1c(C#N)c(=O)n(N)c2n[nH]c(C)c12	> 100 µM	–
COC(=O)c1cccc(COc2ccc([N+](=O)[O-])cc2Cl)c1	> 100 µM	–
O=c1c(-c2nc3ccccc3[nH]2)cc2ccccc2n1Cc1cn(Cc2ccc(F)cc2)nn1	> 100 µM	0.421 µM
COC(=O)C1=C(C(=O)OC)C2CCC1CC2=O (stereo unspecified)	> 100 µM	–
O=C1CSC2(CC(/C=C/c3ccccc3[N+](=O)[O-])=NN2c2cccc(S(=O)(=O)O)c2)N1c1nc2ccccc2s1 (stereo unspecified)	> 75 µM	–
CCN(CC)CCCNc1c2cc(OC)ccc2nc2cccc([N+](=O)[O-])c12	0.414 µM	–

SMILES	TGI	GI50
Nc1nc(N)c(N=Nc2ccc([As](=O)(O)O)c(O)c2)c(N)n1	> 100 µM	–
O=C1N(c2ccccc2)N=C2c3ccncc3C3=NN(c4ccccc4)C(=O)C123 (stereo unspecified)	> 100 µM	–
Nc1c(C(=O)Nc2cccc3ccccc23)sc2nc3c(cc12)CCCCCC3	> 50 µM	4.24 µM
Cc1nc2ccccc2n1Cc1ccc(NC(=S)NC2CCCCC2)cc1	> 100 µM	–
C=C(C)[C@H]1C=C[C@@H](OC(C)=O)[C@@]2(COC(C)=O)[C@H](OC(=O)CCC)[C@H]3[C@@H](OC(C)=O)[C@@H](C)C[C@]3(O)C(=O)[C@@](C)(OC(C)=O)[C@H]12	> 100 µM	–
C[C@H](OC(=O)/C=C/c1ccc(O)c(O)c1)[C@H](C)OC(=O)/C=C/c1ccc(O)c(O)c1	30.3 µM	–
COc1ccc(/C=C2\CCC(CN(C)C)C2=O)cc1 (stereo unspecified)	30.8 µM	–
CCCCCC(=O)OC[n+]1ccc(-c2c(COC(=O)NC(C)C)c(COC(=O)NC(C)C)c3n2CCC3)cc1	> 100 µM	–
CCc1cc(Cc2cc(CC)cc(C(C)(C)C)c2O)c(O)c(C(C)(C)C)c1	8.83 µM	2.71 µM
Fc1cccc(C2SCc3nc4ccccc4n32)c1 (stereo unspecified)	> 100 µM	–
O=C1OCC(CN2CCC(n3c(=O)[nH]c4ccccc43)CC2)=C1c1ccccc1	69.3 µM	–
O=c1c2ccc(Br)cc2nc(-c2ccccc2)n1NC1OC(CO)C(O)C(O)C1O (stereo unspecified)	> 100 µM	–
CN(Cc1cccc(Cl)c1)c1ccc(CO)c(Cl)c1	51.1 µM	13.9 µM
CC(C)[Si](CC1=CCCCC12C(=O)N(COCC[Si](C)(C)C)c1ccccc12)(C(C)C)C(C)C (stereo unspecified)	> 100 µM	–
OC1OC2COC(c3ccccc3)OC2C(O)C1O (stereo unspecified)	> 100 µM	–
Cc1cn(C2CC(/[N+]([O-])=N\Nc3ccc([N+](=O)[O-])cc3)C(CO)O2)c(=O)[nH]c1=O (stereo unspecified)	> 100 µM	–
N[C@@H](Cc1ccc(N(CCCl)CCCl)cc1)C(=O)O	98.4 µM and 199 µM	52.4 µM
COc1ccc(S(=O)(=O)Nc2c(/C=C\c3cc(OC)c(OC)c(OC)c3)ccc(OC)c2O)cc1OC	> 100 µM	0.631 µM
NCCCSCC(=O)O	> 100 µM	–
O=c1oc2ccc([N+](=O)[O-])cc2cc1-c1csc(-c2ccccc2)n1	> 100 µM	–
O=P1(NCCCl)OCCC(OO)N1CCCl (stereo unspecified)	> 100 µM	–
COc1cc(Cl)c(C)cc1NC(=O)c1cc2ccccc2cc1O	17.2 µM	3.04 µM
O=C(O)c1cccc(F)c1C(=O)c1ccc2ccccc2c1	> 100 µM	–
O=C1/C=C/[C@@H](O)[C@@H]2C[C@@H](O)C[C@H]2/C=C/CCCCO1	97.8 µM	0.816 µM
COc1cc(/C=C/C(=O)c2ccc(SC)cc2)cc(OC)c1OC	31.1 µM	17 µM

SMILES	TGI	GI50
COc1ccc2oc(=O)c(-c3nc4ccccc4s3)cc2c1	> 73.4 µM	–
COc1ccc([C@H]2C=C(c3cc(F)c(Cl)cc3Cl)N=c3s/c(=C\c4ccc(-c5ccc(Cl)cc5Cl)o4)c(=O)n32)cc1	> 100 µM	–
COC(=O)/C=C/c1cc(OC)c2c(c1)[C@@H](C(=O)OC)[C@H](c1ccc(OC)c(OC)c1)O2	> 100 µM	22.9 µM
Nc1[nH]nc2c1Cc1c(n(Cc3ccc(Cl)cc3)c3ccccc13)C(=O)N2	27.3 µM	–
O=C1CN2CCN(CC2)CC(=O)Nc2ccc(cc2)S(=O)(=O)c2ccc(cc2)NC(=O)CN2CCN(CC2)CC(=O)Nc2ccc(cc2)S(=O)(=O)c2ccc(cc2)N1	> 100 µM	–
COc1ccc2c(c1)[n+](=O)c(C(=O)C/C(=N\NC(=O)C[N+](C)(C)C)C(=O)Nc1cc(Cl)ccc1Cl)c(C)n2O	> 100 µM	–
FC(F)(F)c1ccc(N=NN2CCCC2)cc1	> 100 µM	–
NCCCCNCCCNC(=O)c1csc(-c2nc(CCN)sc2Cl)n1	> 100 µM	–
CC1=NN(c2cccc(S(=O)(=O)O)c2)C2(C1)SCC(=O)N2c1nc2ccccc2s1 (stereo unspecified)	> 100 µM	–
O=C1C2Cc3ccccc3CN2C(=O)N1CCN1CCOCC1 (stereo unspecified)	> 100 µM	–
CCCCCCCCCCCC(=O)[O][Sn]([CH2]CCC)([CH2]CCC)[CH2]CCC	0.199 µM	0.0692 µM
OC1/C(=C/c2ccccc2)CNC/C1=C\c1ccccc1 (stereo unspecified)	> 100 µM	–
CC(=O)O[C@H]1CC[C@@]2(C)[C@@H](CC[C@@H]3[C@@H]2CC(=O)[C@@]2(C)[C@H]3C[C@@H]3CC(C)=CC(=O)[C@@H]32)C1	> 100 µM	–
O=C1OC(=O)C2C1C1(c3ccccc3)OC2(c2ccccc2)c2c(Br)c(Br)c(Br)c(Br)c21 (stereo unspecified)	> 100 µM	–
Cc1csc(CP(=O)(OC(C)C)OC(C)C)n1	> 100 µM	–
COc1ccc(/C=C2/C(=O)C(c3ccccc3)N(c3ccccc3)C2=O)cc1OC (stereo unspecified)	> 10 µM	–
COc1cccc(-c2nn(C)c3sc(C(=O)NCCN4CCN(c5ccccc5F)CC4)cc23)c1	> 100 µM	39.2 µM
Clc1ccc2c(NCCCNCc3ccc4c(c3)OCO4)ccnc2c1	13.2 µM	3.04 µM
O=CC1C(=O)Nc2nc3ccccc3n2C1c1ccccc1 (stereo unspecified)	33.9 µM	–
CN=C(NC#N)NCc1ccccc1	> 100 µM	–
O=C(Nc1ccccn1)c1cc2c(cc1Cl)Sc1nccn1S2(=O)=O	61.9 µM	–
COC1=C2C[C@](OC)(C#CC=CC#CC2O)CC1(C)C (stereo partly specified)	> 100 µM	–
CSc1nc(NC2OC(CO)C(O)C(O)C2O)c(N)c(=O)[nH]1 (stereo unspecified)	> 100 µM	–
O=c1[nH]nc(-c2ccccc2)c2[nH]c3c(c12)CCCc1ccccc1-3	83.9 µM	–
Nc1c2c(c(O)c3c1=C(CO)C=N3)=NCCS2=O (stereo unspecified)	1.6 µM	0.44 µM

SMILES	TGI	GI50
CC(NC(=O)C1(N)CCCC1)C(=O)O (stereo unspecified)	> 100 µM	–
Cn1c(=O)c2nc3sc4ccccc4c(=N)n3c2n(C)c1=O	> 100 µM	–
COc1ccc(-c2c3c(n(C4OC(COC(C)=O)C(OC(C)=O)C(OC(C)=O)C4OC(C)=O)c(=S)c2C#N)CCCC3)cc1 (stereo unspecified)	> 100 µM	–
O=C(CN1CCOCC1)c1ccc2c(c1)oc(=O)n2CCN1CCCCC1	> 100 µM	–
COc1ccc2c(C(=O)NCCCCCC(=O)O)cc3cc4c(cc3c2c1)OCO4	> 100 µM	> 100 µM
CC(=O)NC1C(OCc2ccccc2)OC(COC(=O)CCCCCCCCCCNC(=O)CCNc2ccc([N+](=O)[O-])c3[nH]c4ccc(O)cc4c(=O)c23)C(O)C1OC(C)C(=O)N[C@H](C(=O)N[C@H](CCC(=O)O)C(N)=O)C(C)C (stereo partly specified)	> 100 µM	–
COc1ccc(-c2c(C#N)c(N)n(C3OC(COC(C)=O)C(OC(C)=O)C(OC(C)=O)C3OC(C)=O)c(=S)c2C#N)cc1 (stereo unspecified)	> 100 µM and 67 µM	64.6 µM and 25.1 µM
CCN(CC)C(=O)CCNC(C)Cc1c[nH]c2ccccc12 (stereo unspecified)	> 100 µM	–
O=C1CCCC1C(O)(C(F)(F)Cl)C(F)(F)Cl (stereo unspecified)	> 10 µM	–
COc1ccc(C(CC(=O)c2ccc(O)cc2)C(C(=O)c2ccc(O)cc2)C(c2ccc(OC)cc2)C2C(=O)NC(=S)NC2=O)cc1 (stereo unspecified)	45.4 µM	–
C/C(=N\Nc1nc2ccccc2[nH]1)c1ccc2ccccc2n1	14.1 µM	–
COc1ccccc1N1C(=O)/C(=C\c2ccccc2)SC1c1cc(OC)c(OC)c(OC)c1 (stereo unspecified)	> 100 µM	–
NC(=O)NC(=O)c1cccc(C(=O)NC(N)=O)n1	> 100 µM	–
CC1(C)C/C=C\CCC(O)C(O)CCC(C)(C)C1=O (stereo unspecified)	> 100 µM	–
COc1ccc(/C=C\c2cc(OC)c(OC(C)=O)c(OC)c2)cc1	> 100 µM	–
O=[N+]([O-])c1cnccc1-n1nnc2ccccc21	> 70.4 µM	–
O=c1cc(/C=C/c2ccccc2)c2ccc(O/C(=C\c3ccccc3)c3nc4ccccc4c(=O)o3)cc2o1	> 100 µM	–
COc1nc(C(Cl)(Cl)Cl)c(Cl)c(OC)c1Cl	> 93 µM and 77.6 µM	> 60.2 µM
CN(C)CCNc1nc2c(c(=O)n(C)c(=O)n2C)n1C	> 100 µM	–
C[C@]12CC[C@H](O)CC1CCC[C@@H]2O (stereo partly specified)	> 100 µM	–
c1ccc2c[n+](Cc3ccnc4ccccc34)ccc2c1	> 100 µM	–
COc1ccc(/C=C2\NC(=S)N(CN3CCOCC3)C2=O)cc1	> 100 µM	–
CC(=O)Oc1cc(OC(C)=O)c(OC(C)=O)c2c1CC1C(=O)C3(CCc4ccccc43)C(=O)C1C2 (stereo unspecified)	> 100 µM	–
Cc1c(OCc2cccc3ccccc23)ccc2c(=O)cc(S)oc12	> 100 µM	–
CCCCCCOc1ccc(/C=N/Nc2cc(C)nc3ccc(Br)cc23)cc1	3.08 µM	1.71 µM
